This sample is rich in variants without activity.
B1: TPR 5TU (parent)
chain: GGAUCUUCUCGAUCUAACAAAAAAGACAAAUCUGCCACAAAGCUUGAGAGCAUCUUCGGAUGCAGAGGCGGCAGCCUUCGGUGGCGCGAUAGCGCCAACGUUCUCAACUAUGACACGCAAAACGCGUGCUCCGUUGAAUGGAGUUUAUCAUG

Variants of: B1
Assay: polymerase ribozyme fitness, log enrichment relative to wild type (log ratio); higher = more active; in vitro selection for triplet polymerase activity
Summary of the method: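 PCR was used to build mutant libraries for each subunit of a heterodimeric triplet polymerase ribozyme, which were then transcribed. A single in vitro selection round, in triplicate, used a frozen incubation at −7 °C and recovered extended constructs by gel excision, streptavidin beads and RT-PCR. Fitness is the logarithm of genotype enrichment relative to wild-type enrichment, averaged over replicates with inverse-variance weights. The logarithm is base 2, and after Illumina sequencing only genotypes with ≥10 input reads and ≥1 read per output were kept.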

Variant	polymerase ribozyme fitness (log ratio)
A17U G59A G86A A89U U134C U146A A147G	≤ -4.2
A17U G59C G86C A113U	≤ -4.2
A17U G59U C93U C114G	-3
A17U G67C A91C C95U G100U A106U	≤ -4.2
A17U G83A C96U C125U C129U	-1.96
A17U G84U	-1.75
A17U G84U C85U C87G C96A A142U U148G	≤ -4.2
A17U G92A	-2.84
A17U G100U U134A U145G	≤ -4.2
A17U U31G G67A	≤ -4.2
A17U U31G U55A U82A C87G C95U U104C C114A U144A	≤ -4.2
A17U U33A C36A C76A G94A G117U C129U	≤ -4.2
A17U U33G G34C A47G	≤ -4.2
A17U U44A C54G U55G G62C C87A C99U A150G G152C	≤ -4.2
A17U U44G U45A G74C G83U A89U C118A	≤ -4.2
A17U U53G C99A C125G G141U U146C	≤ -4.2
A17U U56C G74U C76U G84U C125G A138C	≤ -4.2
A17U U78A C87U U101G A120U A142G	≤ -4.2
A17U U101A U139G A142U	-3.82
A17U U146C	-0.884
C18A A19G C54G G58A G62A G83A C87A A107G G133A	≤ -4.2
C18A A21U A52G C54U G92A C103A	≤ -4.2
C18A A22G G81U C87G C108G A120G G152A	≤ -4.2
C18A A24G A26G C85G G141C U144G	≤ -4.2

Variant	polymerase ribozyme fitness (log ratio)
C18A A24G G25A A39U C63U C75U C96U A107C	≤ -4.2
C18A A28C A29U U55G A66U G68C A91G C118U U135A	≤ -4.2
C18A A30G C38U G48C G71A A89U C96U A97C	≤ -4.2
C18A C32U A37U A39U C85A C87U A150U G152U	≤ -4.2
C18A C38U C51U C96G C116G U148A	≤ -4.2
C18A C79G C85G U102G C149A	≤ -4.2
C18A C87U G88C A89G G124C G126A	≤ -4.2
C18A C93G A97G G140C A147U C149G	≤ -4.2
C18A G74C C93A	≤ -4.2
C18A G92A A120G A121C U148C	≤ -4.2
C18A U55C C76G G81A C87U G140C U151A	≤ -4.2
C18G A19C G88A G92U C95U U134A	-4.03
C18G A20C G34U U55G C118U C123U	-4.18
C18G A20G C32G G65C G67A G83A U139A	≤ -4.2
C18G A20U A29G U56A G65C C93A	≤ -4.2
C18G A20U C63A U101C U151G	≤ -4.2
C18G A21C A29U C85A C114A U145G	≤ -4.2
C18G A21G A24U A41C U53G C54G G84U G92U C93G G143C	≤ -4.2
C18G A21G C93U C149A	≤ -4.2
C18G A21U A28U A41C G141C	≤ -4.2
C18G A22C A40G G42A C75A C79U C95G C125G	≤ -4.2
C18G A23C G25C C43U G83A U104G C116U G152U	≤ -4.2
C18G A23U G46C C57G C87G C103U A137U	≤ -4.2
C18G A23U G48U C51U A52G G71C	≤ -4.2

Variant	polymerase ribozyme fitness (log ratio)
C18G A24C C79U C85U C96A A110U C125A G143A	≤ -4.2
C18G A24G A49C C87U U90G A98G G124U	≤ -4.2
C18G A24G C32U C57U C63G C93A A110U A122C U146C U148C	≤ -4.2
C18G A24G U56A A60G C76G A91C U104G G124U	≤ -4.2
C18G A24U A26U G81A U82A A113C C116A	≤ -4.2
C18G A24U C76A C95U G141A	-3.98
C18G A24U C93A U130G A147U	≤ -4.2
C18G A26C A37C C93U C103G	≤ -4.2
C18G A26G C57G G86A G88C U139G G141U	≤ -4.2
C18G A26U C96A	-2.84
C18G A26U G92U G128C	≤ -4.2
C18G A28G A52G	≤ -4.2
C18G A30U C32A G83U U139G G141U U144A	≤ -4.2
C18G A37C C96G A106G	-1.07
C18G A39C U45A G88C	≤ -4.2
C18G A39G A40U G67A U90C A97G C99U	≤ -4.2
C18G A39G C54A U78A C93U	≤ -4.2
C18G A52G G71A C99G	≤ -4.2
C18G A60C U90G G92C C96A	≤ -4.2
C18G C32A A47C C85G A97U C99U C125G U127C	≤ -4.2
C18G C32G A66U A89G C95G A107U	≤ -4.2
C18G C35U C75U C95U A120G U134C	-2.68
C18G C43A A52C G71A A91U C95G U146C	≤ -4.2
C18G C51A C76G	≤ -4.2

Variant	polymerase ribozyme fitness (log ratio)
C18G C54U U56A A73G A91G	-3.27
C18G C57G A66C C95U A120G	≤ -4.2
C18G C72U G86U G88C A150G	≤ -4.2
C18G C85A	-1.49
C18G C85G	-2.28
C18G C93U A98G A120C G141U	0.17
C18G G25U A66G G71A C118A	≤ -4.2
C18G G25U A138G	≤ -4.2
C18G G42U C43A G50A G58U A73U C95U C125G G133A U146C	≤ -4.2
C18G G48C A66G C93U A110G G133A	≤ -4.2
C18G G58U G117A A122G A142C	≤ -4.2
C18G G59A G80A C93A U102A	≤ -4.2
C18G G59C G88C G100A A107U G141C	≤ -4.2
C18G G71U G94C A120C G124U A150C	≤ -4.2
C18G G81U G92U U148A	≤ -4.2
C18G G94A	-1.09
C18G U31A A120G G128U A137G	-4.17
C18G U33C A91C	≤ -4.2
C18G U44A A49C C96G U101G	≤ -4.2
C18G U53A G88U U90A G92C C93G A97G G126A C129G	≤ -4.2
C18G U56A	-0.693
C18G U56A A73U G83C	-3.86
C18U A19G U33A G58C C96U C118A A121G	≤ -4.2
C18U A19U C79G U82A U109C	≤ -4.2

Variant	polymerase ribozyme fitness (log ratio)
C18U A20C U53A G70C	≤ -4.2
C18U A20U A22C G48A C76G	≤ -4.2
C18U A20U C103A G124A	-3.82
C18U A21U A60G U77C A107U G126A	≤ -4.2
C18U A24C C35G G65C A66U G83A A89U A138G A150U	≤ -4.2
C18U A24U A49C A89U C93G G117A	≤ -4.2
C18U A26U C75G G83A A122U G143A	-3.81
C18U A28U U82A	≤ -4.2
C18U A29C U78G G92A A147C	≤ -4.2
C18U A29U A52C C93A C125G U144A A147U	≤ -4.2
C18U A30G C51A C57A C76U C103G A120U	≤ -4.2
C18U A30U C38A A39C U55C A97G	≤ -4.2
C18U A30U G46A A73G C96G A142C A150G	≤ -4.2
C18U A37G U56A C87G C103U	≤ -4.2
C18U A37U G48A C85G C132G	≤ -4.2
C18U A39G U61C C87G C93G C108G	≤ -4.2
C18U A40U U77G G84U C96U U151C	≤ -4.2
C18U A41G C85A U134A	-3.02
C18U A41U C87G C103G C105G G128A	≤ -4.2
C18U A52U U127A	≤ -4.2
C18U A91G	-3.63
C18U A97G C131G	-3.22
C18U A142C	-0.999
C18U C32A C43U G83C U145C	≤ -4.2

Variant	polymerase ribozyme fitness (log ratio)
C18U C32G A41C G94A	≤ -4.2
C18U C35G U55C C57A A66G G81A C85U	≤ -4.2
C18U C35U U55G A91G A106G G141A	≤ -4.2
C18U C36A	-4.01
C18U C36A G59C C125U	≤ -4.2
C18U C38G A40G U61A G81C C96A U146C	≤ -4.2
C18U C43G U44G G67U G81C G84A C96A G141U U144A U151C	≤ -4.2
C18U C51U C96A G126C C132U	-2.04
C18U C54U C93G A119C	≤ -4.2
C18U C57A G84A U151G	≤ -4.2
C18U C57U G58U C75G C85A U148C	≤ -4.2
C18U C79G C96G	≤ -4.2
C18U C85G C99G C125A A137U U151C	≤ -4.2
C18U C85G C118G A137U	≤ -4.2
C18U C93G	-3.19
C18U C96G U127C G143A	-4.17
C18U G42A A73U C95U A98U C103G	≤ -4.2
C18U G42C A73G A91U U146G A147U	≤ -4.2
C18U G50C U53G C95A A120C	≤ -4.2
C18U G70A G92U A121G G133A	≤ -4.2
C18U G83C	-1.3
C18U G83C C87G C114U A120U A138G	≤ -4.2
C18U U33A C87G U101G G124A C132G	≤ -4.2
C18U U53A C95U C99G	-3.76

Variant	polymerase ribozyme fitness (log ratio)
C18U U53A G88A G117U	≤ -4.2
C18U U56A G83A U102A U144A	-3.72
C18U U61G G112C C132A	≤ -4.2
A19C A20G A73G G74U G81U C93U U151G	≤ -4.2
A19C A21C A24C C75A C123G	≤ -4.2
A19C A21U U55A C96G G133A A137U U146G	≤ -4.2
A19C A23G G34A A37U G68A	≤ -4.2
A19C A23U G70A G141A	≤ -4.2
A19C A24G C32U C38U G59A C85A G133U U145C	≤ -4.2
A19C A24G G94U C95G	≤ -4.2
A19C A24U C27G C76G U148C C149U	≤ -4.2
A19C A24U C114U C118U G141A U145G	≤ -4.2
A19C A26C	-1.76
A19C A26G A30C U53G C96G U139A	≤ -4.2
A19C A29C C35G G58U A73G G92C U148A	≤ -4.2
A19C A29G A37C C51G C93U	≤ -4.2
A19C A29U C85U	≤ -4.2
A19C A37U G70U U144C	≤ -4.2
A19C A39C G65A A91U C125G	≤ -4.2
A19C A39C U53A G94U U104C A115G	≤ -4.2
A19C A39U A41C G88U C125G G140U U145C	≤ -4.2
A19C A40C C54G G58A U61A U104C	≤ -4.2
A19C A41C G48C C87U A91C C123G G133U	≤ -4.2

Reference: the RNAGym collection of RNA variant scans (doi:10.1073/pnas.2313332121)
